Screen size: about 50,000 compounds; about 800 (1.6%) showed an effect of 50% or more. This is one part of the list.

This is an account of results in PubChem BioAssay AID1240 (Sanford-Burnham Center for Chemical Genomics, 2008).

For the assay, the target named is Bcl-2-like protein 10 (Homo sapiens) (UniProt Q9HD36). Put plainly: TR3 peptide-Bcl-B binding displacers, biochemical primary FP assay, phenotype converters (AID 1240).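 Note: 0% = Bcl-B with tracer peptide and DMSO and 100% = tracer peptide lacking Bcl-B.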 Particulars: GST-Bcl-B / FITC-TR3 peptide fluorescence polarization; stronger effect = higher value; compound at 3.75 mg/L.
UniProt Q9HD36, sequence (Q9HD36 whole entry, looked up): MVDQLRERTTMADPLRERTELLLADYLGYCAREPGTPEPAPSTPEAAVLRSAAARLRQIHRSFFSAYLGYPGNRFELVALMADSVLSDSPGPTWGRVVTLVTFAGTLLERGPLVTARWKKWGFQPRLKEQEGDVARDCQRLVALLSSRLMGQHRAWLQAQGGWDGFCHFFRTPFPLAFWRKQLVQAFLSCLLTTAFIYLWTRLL
For the molecule `Cc1cc(C)c(OCCCN2CCCC2)c(Cl)c1`, the displacement came to 2.8%.
Turning to `Cc1c(C(=O)OC(C)C)sc(NC(=O)/C=C/c2ccc3c(c2)OCO3)c1C(=O)OC(C)C`, the displacement was -5.1%.
In the case of `COc1ccc(C(=O)N2CCN(C(=O)c3cccc(Cl)c3)CC2)cc1` it was -29.4%.
In the case of `O=c1c2c3c(sc2[nH]c(=S)n1CCc1ccccc1)CCC3` it was 25.8%.
Take `CCc1ccccc1NC(=O)c1cncc(Br)c1`: the displacement is 5.4%.
In the case of `CC(=O)c1c(O)c(C(C)(C)C)cc(C(C)(C)C)c1O` it was -1.9%; in that of `COC(=O)c1c(N)sc2c1CCc1ccccc1-2`, -1.3%.
In the case of `C#Cc1cccc(NC(=O)C(C)(C)C)c1` it was -8.2%; in that of `O=C(Nc1ncc(Cc2cccc([N+](=O)[O-])c2)s1)c1sc2ccccc2c1Cl`, 8.4%; in that of `Cc1ccc(S(=O)(=O)Oc2ccc(/C=C3\SC(=S)NC3=O)cc2Br)cc1`, -7.8%.
In the case of `O=C(Nc1nnc(/C=C/c2ccccc2)s1)c1ccccc1Br` it was -10.5%.
As to `CCCCOc1cccc(C(=O)NCc2cccnc2)c1`, the displacement is -13.9%.
In the case of `O=C(Nc1ccccc1Br)C1CC(=O)N(c2ccccc2)C1` (stereo unspecified) it was 77.5%; in that of `Cc1cccc(C(=O)O/N=C(\N)c2ccc(Cl)cc2)c1`, 10.6%; in that of `CCOc1ccc(N/C=C(/C#N)c2nc(-c3cccc(OC)c3)cs2)cc1`, -1.7%.
For the molecule `Cc1ccc(S(=O)(=O)N2CC(=O)Nc3ccccc32)cc1`, the displacement was -1.7%.
Take `COc1ccc(-c2c(C(=O)O)nc3ccccc3c2C(=O)O)cc1`: the displacement was -16.3%.
Consider `Cc1cc(OCC(=O)Nc2ccccc2)ccc1Cl`, for which the displacement came out at 0.6%.
In the case of `COc1cccc(/C=N\NC(=O)CNc2ccccc2C)c1`, the displacement turned out to be 14.5%.
In the case of `COc1cc(C2/C(=C(\O)c3ccc(C)cc3)C(=O)C(=O)N2CCCC(=O)O)ccc1O` (stereo unspecified) it was 0.9%; in that of `Cc1ccc2cccc(OC(=O)c3ccc(Br)o3)c2n1`, 10.8%; in that of `Nc1ccc(O)c(-c2nc3cc(N)ccc3s2)c1`, -5.3%.
As for `CCOC(=O)/C(=N/O)C1=NC(C)(C)Cc2cc(C)c(C)cc21`, the displacement is 0.6%.
In the case of `COc1ccc(NC(=O)C2=C(C)NC(=O)NC2c2cc(OC)c(OC)c(OC)c2)cc1` (stereo unspecified) it was -7%; in that of `COc1ccc(NC(=O)CCOc2ccccc2)c(OC)c1`, 4.7%; in that of `Cc1[nH]n(-c2ccc([N+](=O)[O-])cc2)c(=O)c1C=NC1CCCCC1`, -1.9%.
In the case of `O=C(c1cccc(F)c1)N1CCN(c2ccccc2)CC1`, the displacement is -5.4%.
In the case of `CS(=O)(=O)N(CC(=O)NCCSCc1ccccc1)c1cccc(Br)c1` it was -3%; in that of `CCOc1cc(C2NC(=S)NC(C)=C2C(=O)Nc2ccccc2C)ccc1O` (stereo unspecified), -4%.
As for `COc1ccc(O)c(/C=N/c2nc3ccccc3[nH]2)c1`, the displacement is -5.3%.
In the case of `Cc1ccc2nc(NC(=O)c3ccccc3Cl)sc2c1` it was 4.5%.
As to `O=C(Nc1cc(C(F)(F)F)ccc1Cl)C1CC(=O)N(c2ccc(F)cc2)C1` (stereo unspecified), the displacement came to 5.4%.
In the case of `O=Cc1ccc(Oc2ncnc3ccccc23)cc1` it was -6.4%; in that of `CCCc1ncc(C(O)c2cccc(OC)c2OC)n1C` (stereo unspecified), 0.1%.
Take `CCN(CC)c1ccc(NC(=O)Cc2ccc(OC)c(OC)c2)cc1`: the displacement is -1.5%.
In the case of `Cc1ccc(C)c(S(=O)(=O)Nc2ccc(Cl)cc2)c1` it was 9%.
In the case of `O=C(CN1C(=O)c2ccccc2C1=O)Nc1cccc2ncccc12` it was 0.8%.
In the case of `COc1cc(OC)c(C2SCCN2S(=O)(=O)c2ccc3cccc4c3c2CC4)cc1OC` (stereo unspecified) it was -0.6%; in that of `CCCCOc1ccc(C(=O)NCc2ccccc2F)cc1`, 0.7%; in that of `Cc1ccc2c(nc3s/c(=C/c4cc5c(cc4Br)OCO5)c(=O)n32)c1C`, 8.4%.
As for `OCCN(CC#CCC(O)(c1ccccc1)c1ccccc1)Cc1ccccc1`, the displacement amounted to 10.9%.
Regarding `Cc1ccc(/C=C/C(=O)Nc2ccc(C)c([N+](=O)[O-])c2)o1`, the displacement stood at 62%.
Take `O=C(Nc1cccc2ccccc12)C(=O)NC1CCCC1`: the displacement came out at 1.8%.
Turning to `O=C(c1ccccc1-c1nc2ccccc2[nH]1)N1CCOCC1`, the displacement amounted to 7.1%.
Turning to `COCCN1C(=O)/C(=C/c2cccc([N+](=O)[O-])c2)SC1=S`, the displacement was -27%.
Regarding `Cc1ccc2nsnc2c1NC(=O)c1ccc(-c2cccc([N+](=O)[O-])c2)o1`, the displacement is 105%.
In the case of `Cc1cc(C)cc(NC(=O)C(=O)NCCc2ccccc2)c1` it was 8.5%.
In the case of `NC(=O)c1ccccc1NC(=O)c1cccc(Cl)c1` it was -9.4%; in that of `COc1ccc(OC)c(N/C=C(/C#N)c2nc(-c3cc4c(ccc5ccccc54)oc3=O)cs2)c1`, 6.7%; in that of `Cc1ccc(/C=C2/SC(=S)N(CCC(=O)Nc3c(C)n(C)n(-c4ccccc4)c3=O)C2=O)cc1`, 3%.
Regarding `O=C(NCCC1=CCCCC1)c1ccc(Cl)cc1[N+](=O)[O-]`, the displacement is -5.1%.
In the case of `COc1ccc(CCN2C(=O)CSC2c2ccccc2[N+](=O)[O-])cc1OC` (stereo unspecified) it was 0%; in that of `O=C(Nc1ccc([N+](=O)[O-])cc1)C(Sc1ccccc1)c1ccccc1` (stereo unspecified), 0%; in that of `Cc1ccc(OCC(=O)N=Nc2c(O)[nH]c3c(Br)cc(Br)cc23)cc1`, 2.8%.
In the case of `COc1cccc(CNCc2ccc([N+](=O)[O-])cc2)c1OC` it was 6.3%; in that of `CCCOC(=O)c1c(NC(=O)c2cc3ccccc3oc2=O)sc2c1CCC(C)C2` (stereo unspecified), 26%.
In the case of `Cc1cc(OCC(=O)Nc2nc(-c3ccccc3)cs2)ccc1Cl` it was 7.2%; in that of `Cc1ccc(OCC(=O)Nc2cccc(C(=O)Nc3ccccc3C(=O)O)c2)cc1C`, 10.3%; in that of `Cc1cc(C)c(NC(=O)C(C)Sc2nc3ccccc3[nH]2)c(C)c1` (stereo unspecified), -8.4%.
As to `O=C(Nc1ccccc1O)c1cccnc1`, the displacement is -4%.
In the case of `COc1ccc(/C=N/Nc2ccc3ccccc3n2)cc1` it was -2.2%; in that of `O=c1[nH]cnc2c1nnn2Cc1ccccc1`, 12.2%.
In the case of `O=C1c2ccccc2C(=O)N1CSc1nnc(SCN2C(=O)c3ccccc3C2=O)s1` it was -0.7%; in that of `Cc1c(C(=O)OC(C)C)sc(NC(=O)/C=C/c2ccc3c(c2)OCO3)c1C(N)=O`, -1.9%.
As for `FC(F)(F)c1ccc(/C=N/N2CCN(c3ccccc3)CC2)cc1`, the displacement is -8.4%.
Regarding `COCCOC(=O)C1=C(C)NC2=C(C(=O)CC(C)(C)C2)C1c1cccc(OCc2ccccc2)c1` (stereo unspecified), the displacement was -4%.
Regarding `Cc1ccc(/C(O)=C/C(=O)C(=O)Nc2nccs2)cc1`, the displacement is 14.3%.
In the case of `N#Cc1c(NC(=O)CSc2ccccc2)sc2c1CCCC2` it was -8.6%; in that of `CC1CCN(C(=O)c2ccc([N+](=O)[O-])cc2NC(=O)c2cccs2)CC1`, 2.6%; in that of `Cc1ccc(-c2ccc(/C=C3\Sc4ccccc4C3=O)o2)c([N+](=O)[O-])c1`, 5.6%.
In the case of `Cc1ccc(C(C)C)cc1OCC(=O)N=Nc1c(O)n(C)c2ccccc12` it was 2.6%.
